# According to the supplement of paper PMC8728848:
# This is one part of the list.
# How the values were obtained:
# Assay in all cases: glycan array binding signal (z-score within array); higher = stronger binding
# Conditions in all cases: glycan notation: IUPAC condensed, linker removed
# [1] = biological target: Gal(b1-4)GlcNAc(b1-2)Man(a1-3)[Gal(b1-4)GlcNAc(b1-2)Man(a1-6)]Man(b1-4)GlcNAc(b1-4)GlcNAc
# Summary of the method: (§1)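 The binding signal is a Z-score computed within each array. Data were drawn from 3228 arrays in the Consortium for Functional Glycomics database, restricted to those with a known protein sequence. Scores were averaged over arrays of the same protein sequence at different concentrations or buffers, and over linkers, and negative values can be taken as non-binding.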
# [2] = biological target: Gal(b1-4)GlcNAc(b1-3)Gal(b1-3)GlcNAc
# Summary of the method: as §1
# [3] = biological target: Gal(b1-4)GlcNAc(b1-3)Gal(b1-4)Glc
# Summary of the method: as §1
# [4] = biological target: Gal(b1-4)GlcNAc(b1-3)Gal(b1-4)GlcNAc
# Summary of the method: as §1
# [5] = biological target: Gal(b1-4)GlcNAc(b1-3)Gal(b1-4)GlcNAc(b1-3)Gal(b1-4)GlcNAc
# Summary of the method: as §1
# [6] = biological target: Gal(b1-4)GlcNAc(b1-3)Gal(b1-4)[Fuc(a1-3)]GlcNAc(b1-3)Gal(b1-4)[Fuc(a1-3)]GlcNAc
# Summary of the method: as §1
# [7] = biological target: Gal(b1-4)GlcNAc(b1-3)GalNAc
# Summary of the method: as §1
# [8] = biological target: Gal(b1-4)GlcNAc(b1-3)[Gal(b1-4)GlcNAc(b1-6)]Gal(b1-4)GlcNAc
# Summary of the method: as §1
# [9] = biological target: Gal(b1-4)GlcNAc(b1-3)[Gal(b1-4)GlcNAc(b1-6)]GalNAc
# Summary of the method: as §1
# [10] = biological target: Gal(b1-4)GlcNAc(b1-3)[GlcNAc(b1-6)]Gal(b1-4)GlcNAc
# Summary of the method: as §1
# [11] = biological target: Gal(b1-4)GlcNAc(b1-6)Gal(b1-4)GlcNAc
# Summary of the method: as §1
# [12] = biological target: Gal(b1-4)GlcNAc(b1-6)Gal(b1-4)GlcNAc(b1-6)GalNAc
# Summary of the method: as §1
# [13] = biological target: Gal(b1-4)GlcNAc(b1-6)GalNAc
# Summary of the method: as §1
# [14] = biological target: Gal(b1-4)GlcNAc(b1-6)[Gal(b1-3)]GalNAc
# Summary of the method: as §1
# Gal3S(b1-3)GalNAc = biological target: Gal3S(b1-3)GalNAc
# Summary of the method: as §1
# Gal3S(b1-3)GlcNAc = biological target: Gal3S(b1-3)GlcNAc
# Summary of the method: as §1
# [15] = biological target: Gal3S(b1-3)[Fuc(a1-4)]GlcNAc
# Summary of the method: as §1
# Gal3S(b1-4)Glc = biological target: Gal3S(b1-4)Glc
# Summary of the method: as §1
# Gal3S(b1-4)Glc6S = biological target: Gal3S(b1-4)Glc6S
# Summary of the method: as §1
# Gal3S(b1-4)GlcNAc = biological target: Gal3S(b1-4)GlcNAc
# Summary of the method: as §1
# Gal3S(b1-4)GlcNAc6S = biological target: Gal3S(b1-4)GlcNAc6S
# Summary of the method: as §1
# [16] = biological target: Gal3S(b1-4)[Fuc(a1-3)]Glc
# Summary of the method: as §1
# Gal3S4S(b1-4)GlcNAc = biological target: Gal3S4S(b1-4)GlcNAc
# Summary of the method: as §1
# Gal3S6S(b1-4)GlcNAc = biological target: Gal3S6S(b1-4)GlcNAc
# Summary of the method: as §1
# Gal3S6S(b1-4)GlcNAc6S = biological target: Gal3S6S(b1-4)GlcNAc6S
# Summary of the method: as §1
# Gal4S(b1-4)GlcNAc = biological target: Gal4S(b1-4)GlcNAc
# Summary of the method: as §1
# Gal4S6S(b1-4)GlcNAc = biological target: Gal4S6S(b1-4)GlcNAc
# Summary of the method: as §1
# Gal6S(b1-4)Glc = biological target: Gal6S(b1-4)Glc
# Summary of the method: as §1
# Gal6S(b1-4)Glc6S = biological target: Gal6S(b1-4)Glc6S
# Summary of the method: as §1
# Gal6S(b1-4)GlcNAc = biological target: Gal6S(b1-4)GlcNAc
# Summary of the method: as §1
# Gal6S(b1-4)GlcNAc6S = biological target: Gal6S(b1-4)GlcNAc6S
# Summary of the method: as §1
# GalNAc(a1-3)Gal = biological target: GalNAc(a1-3)Gal
# Summary of the method: as §1
# GalNAc(a1-3)GalNAc = biological target: GalNAc(a1-3)GalNAc
# Summary of the method: as §1
# GalNAc(b1-3)Gal = biological target: GalNAc(b1-3)Gal
# Summary of the method: as §1
# [17] = biological target: GalNAc(b1-3)Gal(a1-4)Gal(b1-4)GlcNAc
# Summary of the method: as §1
# GalNAc(b1-3)GalNAc = biological target: GalNAc(b1-3)GalNAc
# Summary of the method: as §1
# GalNAc(b1-4)GlcNAc = biological target: GalNAc(b1-4)GlcNAc
# Summary of the method: as §1
# Glc(a1-4)Glc = biological target: Glc(a1-4)Glc
# Summary of the method: as §1
# Glc(a1-6)Glc(a1-6)Glc = biological target: Glc(a1-6)Glc(a1-6)Glc
# Summary of the method: as §1
binder,measurement,setting,value
CD83 (Homo sapiens) (protein) MSRGLQLLLLSCAYSLAPATPEVKVACSEDVDLPCTAPWDPQVPYTVSWVKLLEGGEERMETPQEDHLRGQHYHQKGQNGSFDAPNERPYSLKIRNTTSCNSGTYRCTLQDPDGQRNLSGKVILRVTGCPAQRKEETFKKYRAETSEQKLISEEDLSRGSDDDDKAEPRGP,glycan array binding signal (z-score),[1],-0.408
same,glycan array binding signal (z-score),[2],-0.048
same,glycan array binding signal (z-score),[3],-0.31
same,glycan array binding signal (z-score),[4],0.647
same,glycan array binding signal (z-score),[5],-0.142
same,glycan array binding signal (z-score),[6],-0.087
same,glycan array binding signal (z-score),[7],-0.359
same,glycan array binding signal (z-score),[8],-0.335
same,glycan array binding signal (z-score),[9],-0.236
same,glycan array binding signal (z-score),[10],-0.242
same,glycan array binding signal (z-score),[11],-0.226
same,glycan array binding signal (z-score),[12],-0.298
same,glycan array binding signal (z-score),[13],-0.071
same,glycan array binding signal (z-score),[14],-0.225
same,glycan array binding signal (z-score),Gal3S(b1-3)GalNAc,-0.147
same,glycan array binding signal (z-score),Gal3S(b1-3)GlcNAc,-0.457
same,glycan array binding signal (z-score),[15],-0.208
same,glycan array binding signal (z-score),Gal3S(b1-4)Glc,-0.364
same,glycan array binding signal (z-score),Gal3S(b1-4)Glc6S,-0.082
same,glycan array binding signal (z-score),Gal3S(b1-4)GlcNAc,-0.298
same,glycan array binding signal (z-score),Gal3S(b1-4)GlcNAc6S,-0.177
same,glycan array binding signal (z-score),[16],-0.141
same,glycan array binding signal (z-score),Gal3S4S(b1-4)GlcNAc,0.804
same,glycan array binding signal (z-score),Gal3S6S(b1-4)GlcNAc,-0.416
same,glycan array binding signal (z-score),Gal3S6S(b1-4)GlcNAc6S,-0.129
same,glycan array binding signal (z-score),Gal4S(b1-4)GlcNAc,-0.406
same,glycan array binding signal (z-score),Gal4S6S(b1-4)GlcNAc,-0.047
same,glycan array binding signal (z-score),Gal6S(b1-4)Glc,-0.191
same,glycan array binding signal (z-score),Gal6S(b1-4)Glc6S,-0.135
same,glycan array binding signal (z-score),Gal6S(b1-4)GlcNAc,0.098
same,glycan array binding signal (z-score),Gal6S(b1-4)GlcNAc6S,-0.075
same,glycan array binding signal (z-score),GalNAc(a1-3)Gal,-0.221
same,glycan array binding signal (z-score),GalNAc(a1-3)GalNAc,-0.329
same,glycan array binding signal (z-score),GalNAc(b1-3)Gal,-0.064
same,glycan array binding signal (z-score),[17],0.235
same,glycan array binding signal (z-score),GalNAc(b1-3)GalNAc,-0.419
same,glycan array binding signal (z-score),GalNAc(b1-4)GlcNAc,-0.199
same,glycan array binding signal (z-score),Glc(a1-4)Glc,-0.39
same,glycan array binding signal (z-score),Glc(a1-6)Glc(a1-6)Glc,-0.051
